Data as given in PMC4336329 (PLoS ONE, 2015).
The campaign covered roughly 310,000 compounds. About 14,000 (4.5%) showed an effect of 50% or more. Effects have a minus sign here. The list shows a part of the results.

target: human ether-à-go-go-related gene (hERG) potassium channel (human, UniProt Q12809); assay: primary screen, population patch clamp on CHO cells stably expressing hERG
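Further: peak tail current of the secondary pulse compared with the same well before compound.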

Chain of human ether-à-go-go-related gene (hERG) potassium channel (Q12809 whole entry, looked up): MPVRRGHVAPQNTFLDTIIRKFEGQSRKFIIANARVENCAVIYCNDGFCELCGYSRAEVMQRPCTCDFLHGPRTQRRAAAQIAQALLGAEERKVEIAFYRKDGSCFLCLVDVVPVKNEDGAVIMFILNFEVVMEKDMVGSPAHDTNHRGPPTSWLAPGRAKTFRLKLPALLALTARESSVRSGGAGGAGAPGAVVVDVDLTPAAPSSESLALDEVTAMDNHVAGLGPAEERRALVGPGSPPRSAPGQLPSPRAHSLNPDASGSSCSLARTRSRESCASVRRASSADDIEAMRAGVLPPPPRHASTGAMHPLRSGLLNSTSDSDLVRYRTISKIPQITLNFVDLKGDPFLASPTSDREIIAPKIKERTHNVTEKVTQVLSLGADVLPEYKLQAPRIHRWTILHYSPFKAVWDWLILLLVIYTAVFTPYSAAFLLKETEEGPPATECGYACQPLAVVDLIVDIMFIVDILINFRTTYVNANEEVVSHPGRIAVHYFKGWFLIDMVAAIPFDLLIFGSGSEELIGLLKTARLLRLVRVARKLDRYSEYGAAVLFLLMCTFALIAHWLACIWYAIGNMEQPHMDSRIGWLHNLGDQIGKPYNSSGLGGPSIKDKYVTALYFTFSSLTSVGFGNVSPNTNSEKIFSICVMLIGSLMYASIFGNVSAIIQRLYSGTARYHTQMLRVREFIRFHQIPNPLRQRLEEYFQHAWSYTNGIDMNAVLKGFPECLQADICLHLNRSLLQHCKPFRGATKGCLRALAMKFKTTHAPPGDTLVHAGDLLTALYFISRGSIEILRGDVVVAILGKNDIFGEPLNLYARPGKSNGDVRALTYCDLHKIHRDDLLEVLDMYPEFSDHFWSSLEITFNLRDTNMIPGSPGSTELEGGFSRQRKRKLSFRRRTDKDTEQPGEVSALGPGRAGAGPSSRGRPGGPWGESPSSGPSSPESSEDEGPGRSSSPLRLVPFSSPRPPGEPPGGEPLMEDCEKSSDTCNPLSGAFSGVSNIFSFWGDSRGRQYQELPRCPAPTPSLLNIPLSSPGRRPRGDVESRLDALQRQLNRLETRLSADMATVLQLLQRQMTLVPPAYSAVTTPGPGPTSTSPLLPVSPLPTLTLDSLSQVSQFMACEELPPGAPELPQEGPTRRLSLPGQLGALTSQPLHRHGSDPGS

SMILES	hERG current change (%, negative = inhibition) at 10uM [%]
O=C1c2ccccc2NC(c2ccc(-c3cccs3)o2)N1O (stereo not shown)	-4.21
COC(=O)C1=C(C)N(Cc2ccccc2)C(=O)N[C@H]1c1cccs1	-8.13
O=C(Nc1cnn(Cc2ccc(Cl)cc2)c1)c1cccs1	-2.52
CC(=O)Nc1nc(-c2ccc3c(c2)CC(C)N3C(=O)C2CC2)c(C)s1 (stereo not shown)	4.04
COc1ccccc1NS(=O)(=O)c1cccc(NC(=O)C2CC(=O)N(Cc3ccccc3)C2)c1 (stereo not shown)	6.4
CC1CCN(CCc2nc3cc(NC(=O)NC4CCCCC4)ccc3n2C)CC1	-15.1
Cc1nn2c(N)csc2nc1=O	7.5
O=C(COC(=O)c1cc(NS(=O)(=O)c2cccs2)ccc1O)Nc1cc(Cl)ccc1Cl	29.2
O=C(CSc1nnc(-c2ccco2)n1CC1CCCO1)NC1CCCC1 (stereo not shown)	-4.75
CCOCCCNC(=O)C1CCN(S(=O)(=O)CC)CC1	1.19
Cc1nn(-c2ccccc2)c(C)c1NC(=O)COC(=O)c1ccc(Cl)c(S(N)(=O)=O)c1	-0.198
O=C(COC(=O)/C=C/c1cccs1)NC1CC1	6.82
c1coc(C2=Nc3cccc4cccc(c34)N2)c1	-1.03
CCCC1CCC(=NNS(=O)(=O)c2ccc(C)c([N+](=O)[O-])c2)CC1 (stereo not shown)	8.84
CNC(=O)c1ccsc1NC(=O)c1ccc2c(c1)CCCC2	-2.49
CSc1ccccc1OCc1cc(C(=O)NCCCn2nc(C)cc2C)no1	-30.5
Cc1ccc(OCC(O)Cn2c(N3CCOCC3)nc3c2c(=O)[nH]c(=O)n3C)cc1 (stereo not shown)	-16.1
Cc1cc(NC(=O)Nc2cccc(C(F)(F)F)c2)n(C)n1	12.3
Cc1nonc1OCCNc1ccc([N+](=O)[O-])c2cccnc12	-18
CCOC(=O)c1cc(C#N)c(N2CCCCC2)nc1-c1ccccc1	-5.08
CCS(=O)(=O)Nc1cc2c3c(c1)CCC(=O)N3CCC2	14.2
C=CCNc1nc(N)c([N+](=O)[O-])c(Nc2cccc(Cl)c2)n1	3.57

SMILES	hERG current change (%, negative = inhibition) at 10uM [%]
N#Cc1ccc(C(=O)OCC(=O)Nc2ccc(N3CCOCC3)cc2)cc1	-1.64
CCCN(C(=O)CCOc1ccc(C(C)(C)C)cc1)c1c(N)n(Cc2ccccc2)c(=O)[nH]c1=O	29.7
N/C(=N\OC(=O)/C=C/c1ccccc1)c1cccnc1	-5.4
CN1C(=O)C(=O)/C(=C(/O)c2ccccc2)C1c1ccccc1 (stereo not shown)	32.3
Cc1c(NC(=O)COC(=O)c2cc3c4ccccc4n(C)c3s2)c(=O)n(-c2ccccc2)n1C	-11.8
COc1cccc(N2CCN(C(=O)c3ccc4nc[nH]c4c3)CC2)c1	10.6
COc1ccccc1C(=O)Nc1ccc(NC(=O)c2ccco2)c(C)c1	-3.62
COc1cccc(/C=C/C(=O)OCC(=O)NCc2ccc(Cl)cc2)c1	23.6
O=C(COC(=O)Cc1ccccc1F)Nc1ccc2c(c1)OCO2	10.1
Cn1c(=O)c2c(SCC(=O)NCc3ccco3)nc(-c3ccccc3Cl)nc2n(C)c1=O	-1.4
COc1ccc([N+](=O)[O-])cc1NC(=O)c1cncc(Br)c1	-12.2
CCOC(=O)c1ccc(NC(=S)N2CCCC(C(=O)OCC)C2)cc1 (stereo not shown)	-4.79
Cc1ccc2c(NC(=O)c3ccc(Br)o3)cccc2n1	7.72
CCCc1cc(=O)oc2cc(OCC(=O)NCC(O)c3ccccc3)ccc12 (stereo not shown)	26.8
COc1ccc(NC(=O)CC2SC(=Nc3ccccc3)NC2=O)cc1 (stereo not shown)	-2.59
CCOc1cc(N2C(=O)CC3CS(=O)(=O)CC32)c(OCC)cc1NC(=O)c1ccccc1 (stereo not shown)	5.62
Cc1ccccc1NC(=O)C1=CC=CN2CCS(=O)(=O)N=C12	-11.7
CCOc1ccc(-n2c(CC)nc3ccccc3c2=O)cc1	1.33
Cc1c2cnn(CC(=O)NCCN3CCOCC3)c(=O)c2c(C)n1Cc1ccc(F)cc1	1.24
Cn1c(=O)c2c(nc(N/N=C/c3cccs3)n2Cc2ccc(Br)cc2)n(C)c1=O	-15.8
O=C(NCC(=O)N(Cc1ccccc1)C(C(=O)NCC1CCCO1)c1ccccc1)c1cccs1 (stereo not shown)	1.57
